Test results published in paper PMC6919601, “Identification of Plasmodium dipeptidyl aminopeptidase allosteric inhibitors by high throughput screening” (PLoS ONE, 2019).
Among all 110,000 compounds or so, about 230 (0.21%) showed an effect of 50% or more. Some of the results follow.

Target: DPAP1 (Plasmodium falciparum, UniProt Q8IIJ9)
Assay: primary screen, percent inhibition; read by cleavage of a fluorogenic dipeptide substrate; higher = more effect of the substance
Set-up: species or system P. falciparum D10 trophozoite lysates; single well
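Further: 30 min substrate incubation versus DMSO and 10 µM JCP410 controls.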

Sequence of DPAP1 (Q8IIJ9 whole entry, looked up): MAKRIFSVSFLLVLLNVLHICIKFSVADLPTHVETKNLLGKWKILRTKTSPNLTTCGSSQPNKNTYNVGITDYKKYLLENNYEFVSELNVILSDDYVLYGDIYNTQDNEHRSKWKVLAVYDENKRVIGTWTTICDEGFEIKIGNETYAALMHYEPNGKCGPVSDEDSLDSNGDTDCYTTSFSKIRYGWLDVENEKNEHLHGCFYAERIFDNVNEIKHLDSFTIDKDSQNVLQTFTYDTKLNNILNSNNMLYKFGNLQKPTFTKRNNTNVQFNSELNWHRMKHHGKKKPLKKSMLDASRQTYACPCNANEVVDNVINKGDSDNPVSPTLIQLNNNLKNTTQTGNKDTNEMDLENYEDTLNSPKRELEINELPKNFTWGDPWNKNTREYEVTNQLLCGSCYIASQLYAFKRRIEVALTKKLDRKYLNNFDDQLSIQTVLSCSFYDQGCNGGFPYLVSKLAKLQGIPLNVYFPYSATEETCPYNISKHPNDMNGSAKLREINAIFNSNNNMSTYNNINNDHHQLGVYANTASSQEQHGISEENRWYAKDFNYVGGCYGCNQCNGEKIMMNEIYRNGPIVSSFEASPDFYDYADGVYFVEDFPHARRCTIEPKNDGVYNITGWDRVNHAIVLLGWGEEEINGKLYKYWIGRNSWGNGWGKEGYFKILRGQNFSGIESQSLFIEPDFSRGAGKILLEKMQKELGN

SMILES | % Inhibition @ 10 uM
CCCCCc1ccc(-c2ccc(-c3noc(-c4ccccc4Cl)n3)cc2)cc1 | 5.29%
CCC(NC(=O)C1CCC(C/N=c2/c(N3CCCCC3)c(O)c2=O)CC1)c1cccs1 (stereo not drawn) | 1.02%
CCOC(=O)Cc1csc(NC(=O)c2cccc(F)c2)n1 | -0.0619%
O=C(O)c1c(F)c(F)c(F)c(F)c1Cc1ccccc1 | 0.146%
O=C1OC(c2ccc(Cl)cc2)=N/C1=C\C=C\c1ccccc1 | 5.94%
c1ccc(-c2cccs2)cc1 | -2.17%
O=C(CN1N=C(c2ccccc2)CCC1=O)NCc1cccs1 | 5.35%
O=C(/C=C/c1cccc([N+](=O)[O-])c1)NC1CCCCC1 | -2.12%
CC1CN(C2CC(=O)N(c3ccc(N4C(=O)CC(N5CC(C)OC(C)C5)C4=O)cc3)C2=O)CC(C)O1 (stereo not drawn) | 12.3%
O=C(Nc1nnc(CCN2CCCCC2)s1)c1ccco1 | -4.42%
COC(=O)c1c2c(c[n+](C)c1C)COC(C)OC2 (stereo not drawn) | -1.72%
Cc1c(C(=O)N2CCN(C)CC2)oc2ccc3c(c12)C(=O)CC(C)(c1ccc(Cl)cc1)O3 (stereo not drawn) | 2.84%
Cc1ccccc1NC(=O)CCN1C(=O)CSC1=O | -3.25%
O=C(C1CCCN(c2ncnc3c2nc2n3CCCCC2)C1)N1CCC(N2CCCCC2)CC1 (stereo not drawn) | -1.21%
CCCNC(=O)Cn1c(=O)sc2ccccc21 | 0.526%
COc1ccc(CN2CCN(C(=O)c3cccc(F)c3)CC2)cc1Br | -18.8%
CC(=O)c1cc(C#N)c(SCC(=O)c2ccc(Cl)cc2)nc1C | 2.7%
COc1ccc(CCNC(=O)N2CCOCC2)cc1OC | 3.59%
CCSc1nc2c(c(=O)n1C1CCCC1)C1(CCCCC1)Cc1ccccc1-2 | -0.267%
CCC(C)NC(=O)CNC(=S)N(Cc1ccccc1F)C1CCCCC1 (stereo not drawn) | -2.14%
COc1cc(C(=O)Nc2c(C(=O)c3ccc(F)cc3)oc3ccccc23)cc(OC)c1OC | -1.11%
CCCCCCc1cc2c(s1)CCCC/C2=N\O | -6.36%
CC1(C)CC1C(=O)NCc1ccccc1 (stereo not drawn) | 0.00178%
CCN(CC)C(=O)C1CCCN(Cc2c(F)cccc2Cl)C1 (stereo not drawn) | -6.82%
Cc1ccc2cc3cc(C(=O)N4CCCC4)sc3nc2c1 | 0.947%
Cc1c(C)n(C(=O)CSc2nc3ccccc3[nH]2)c2ccccc12 | -0.85%

SMILES | % Inhibition @ 10 uM
CCC(C)NC(=O)C(CC)n1nc(C)n2c(cc3sccc32)c1=O (stereo not drawn) | 3.4%
O=C(Nc1ccc(Cl)cc1)Nc1cc(Br)cc2cccnc12 | -3.77%
COc1cc(C2SCC(=O)N2c2nnc(C34CC5CC(CC(C5)C3)C4)s2)cc(OC)c1OC (stereo not drawn) | 0.884%
Cc1ccc(S(=O)(=O)NCCC(=O)NCCc2ccccc2Cl)cc1 | -3.94%
Cc1ccccc1OCC(=O)Nc1sc2c(c1C#N)CCC2 | -2.54%
COc1cc(NS(=O)(=O)c2ccc(NC(=O)c3ccc(C)cc3)cc2)nc(OC)n1 | 7.36%
Cc1nc(SCC(N)=O)c(C#N)c(C)c1C | -0.239%
CC1C(O)CC(c2ccccc2)NC1c1ccccc1 (stereo not drawn) | -4.03%
Cc1ccc(S(=O)(=O)N2CCC(C(=O)NCC3OCCc4ccccc43)CC2)cc1 (stereo not drawn) | 15%
O=C(c1ccc2c(c1)sc1nc(-c3ccc(F)cc3)cn12)N1CCN(C(=O)c2ccco2)CC1 | 10.9%
CCNC(=O)CN(Cc1ccccc1Cl)S(=O)(=O)c1ccc(Br)cc1 | -2.32%
COC(=O)c1cnn2c(C(F)(F)F)cc(-c3cccs3)nc12 | -0.406%
Cc1nc2c(c(C)nn2C)c(C)c1CCC(=O)NCCC1=CCCCC1 | -6.09%
CSc1ncc(C(=O)NCc2ccco2)c(C)n1 | -4.27%
CCc1ccccc1-n1nnc(-c2nc(-c3ccc(OC)cc3)no2)c1N | 1.13%
CCOc1ccc(Cl)cc1CNCCNC(=O)c1nonc1N | 4.94%
CCOC(=O)c1c(NC(=O)COc2ccccc2C)sc2c1CCN(C(C)=O)C2 | 10.1%
O=C(Nc1sc2c(c1C(=O)NCC1CCCO1)CCCC2)c1ccccc1Cl (stereo not drawn) | -3.34%
CC(=O)c1nc(-c2ccccc2)cc(-c2ccccc2)n1 | 1.42%
CCN1C(=O)/C(=C/c2ccc3c(c2)OCO3)S/C1=N/c1ccc(OC)cc1 | 0.909%
O=c1c2ccccc2ncn1-c1ccccc1F | 3.19%
CCOC(=O)N1CCC(NC(=O)c2cc3c(s2)CS(=O)(=O)C3)CC1 | -5.54%
COc1cccc(N(CC(=O)Nc2c(C)cccc2C)S(=O)(=O)c2ccccc2)c1 | 0.324%
CCOc1ccc(NC(=O)CN(c2cc(C(F)(F)F)ccc2Cl)S(C)(=O)=O)cc1 | -5.54%
CCOc1ccc(C(=O)Nc2ccc(S(=O)(=O)NC(C)=O)cc2)cc1 | -3.45%
COc1cc(C)c(CN2CCC(O)C2)cc1C (stereo not drawn) | 1.9%

SMILES | % Inhibition @ 10 uM
O=C(CNS(=O)(=O)c1cc(Cl)ccc1Cl)Nc1ccc(OCc2ccccc2)cc1 | -0.473%
CC1CCCN(S(=O)(=O)c2ccc(Cl)cc2)C1 (stereo not drawn) | 0.526%
O=C(Nc1ccccc1)C1COc2ccccc2O1 (stereo not drawn) | 0.909%
COc1cc([N+](=O)[O-])cc(CN2CCC(C)CC2)c1O | -1.75%
Cc1ccc(S(=O)(=O)Nc2ccc(-c3cn4cccnc4n3)cc2)cc1 | -1.63%
O=c1oc2ccccc2cc1-c1csc(-c2ccc(Br)cc2)n1 | 4.65%
C(#Cc1ccc(C#CCN2CCCC2)cc1)CN1CCCC1 | 3.25%
Cc1cc(OCCCCCN2CCNCC2)c(C)cc1Cl | -14.4%
Cc1ccc(-c2cc(C(=O)NCC3CCCO3)no2)cc1 (stereo not drawn) | 0.221%
Cc1ccc(/C=C2\N=C(c3cccc(Br)c3)OC2=O)o1 | 3.31%
c1ccc(-c2csc(NCc3ccco3)n2)cc1 | -0.178%
O=C1c2ccccc2C2(c3ccccc3)NCCN12 (stereo not drawn) | -1.37%
CCn1cc(/C=C(\NC(=O)c2ccc(OC)c(OC)c2)C(=O)N2CCOCC2)c2ccccc21 | -5.36%
COc1ccc(CC(=O)c2ccc(OC)c(OC)c2C)cc1OC | 3.53%
CC1CCCC(C)N1C(=O)c1cc(-c2ccc(F)cc2)on1 (stereo not drawn) | 0.0654%
CCN1CCN(C(=O)CSc2c3c(nc4ccc(Cl)cc24)CCCC3)CC1 | -4.96%
Cc1cccc(C(=O)N2CCc3ccccc3C2)c1 | -1.62%
Cc1ccc2c(c1)Cc1c(nc(-c3ccc(F)cc3)nc1SCC(N)=O)O2 | 0.44%
O=c1/c(=C/c2ccccc2)sc2nnc(-c3ccccc3Cl)n12 | 4.68%
COc1cc(NC(=O)c2cccc(C)c2)ccc1NC(=O)c1ccco1 | -7.76%
CCN1CCN(C(=O)Cn2ncc3c(C)n(Cc4ccc(Cl)cc4)c(C)c3c2=O)CC1 | 1.22%
COc1cc(S(=O)(=O)Nc2cccc(-c3cn4ccsc4n3)c2)c(C)cc1C | 4.7%
COc1ccc(-c2[nH]nc3c2C(c2ccccc2Cl)NC3=O)cc1 (stereo not drawn) | -11.3%
c1ccc2c(c1)[nH]c1c2ccc2nonc21 | -6.36%
Cc1ccc2c(c1)-c1onc(C(=O)NC(C)c3ccccc3)c1CO2 (stereo not drawn) | 0.0281%
CCOC(=O)N1CCN(C(=O)c2ccc(CNS(=O)(=O)c3ccc(C)cc3)cc2)CC1 | -1.54%

SMILES | % Inhibition @ 10 uM
COC(=O)c1cc2sc(Cl)cc2n1Cc1cccc(F)c1 | -11.6%
O=C(COc1ccc(Cl)cc1Cl)Nc1c2c(nn1-c1ccc(F)cc1)CS(=O)(=O)C2 | 14.1%
COC(=O)/C(C#N)=C/c1c(Oc2cc(C)cc(C)c2)nc2c(C)cccn2c1=O | 0.315%
CCn1c(CNC(=O)COC)nc2ccccc21 | -0.228%
COc1cc(/C=C2/NC(=O)NC2=O)c(Br)cc1OCC(=O)O | -0.178%
CCC1CCCCN1C(=O)c1cccs1 (stereo not drawn) | 1.91%
COC(=O)c1sc(N2C(=O)c3oc4ccccc4c(=O)c3C2c2cccc(O)c2)nc1C (stereo not drawn) | 1.19%
CC(C)C[C@H](NC(=O)c1ccc(Oc2cccnc2)cc1)C(=O)NCC#N | 3.66%
NS(=O)(=O)c1ccc(CNC(=O)c2ccco2)cc1 | -3.78%
C=CCSc1nc2ccccc2n1CC(=O)O | 4.41%
CS(=O)(=O)N(CC(=O)NCc1ccccc1Cl)c1cc(Cl)ccc1Cl | 2.76%
CC(C)CNCC(=O)Nc1sc2c(c1C(=O)Nc1ccc(Br)cc1)CCC2 | -6.07%
CCCc1nnc2sc(NC(=O)c3cc(OCC)c(OCC)c(OCC)c3)nn12 | -2.79%
COc1ccc(C(C)(C)C)cc1NC(=O)C1CC1C (stereo not drawn) | -5.35%
CCOC(=O)C1=C(CN2CCC(c3ccccc3)C2)NC(=O)NC1c1ccc(OC)cc1 (stereo not drawn) | 1.93%
COCCCNC(=O)C1CCCN(c2nnc(C)c3c(C)n(-c4ccc(Cl)cc4)nc23)C1 (stereo not drawn) | 0.535%
Cc1oc2ncn(C)c(=O)c2c1C(=O)NC1CCCCC1 | 1.15%
Cc1ccc(C)c(S(=O)(=O)c2nnn3c2nc(NCCc2ccccc2)c2sccc23)c1 | -10.8%
COc1ccc2c(=O)c(Oc3ccccc3)c(C(F)(F)F)oc2c1OC | -7.02%
Cc1ccc(N2CCCn3c2cc(C)c(C#N)c3=O)cc1C | -3.16%
CCc1nnc(NC(=O)CSc2nc(SC)ns2)s1 | 2.21%
C/C=C(\C)CN1CCN(C(C)=O)CC1 | 0.0792%
CC1CCC2C(=O)N(c3cccc(Cl)c3)C(=O)C2C1 (stereo not drawn) | -8.06%
O=C1C=C(NCCOC23CC4CC(CC(C4)C2)C3)C2(CCCCC2)O1 | -1.69%
